Measured values from the GPR68 mutational scans of Howard et al. (2025).
Scores with a large standard error are left out. The source holds two more conditions with little spread; they are left out. Names with del lack the residues named; names with ins carry added residues between the positions named. For some assays here: The data file names ogerin without a concentration.

B1: GPR68, Q15743 (parent)
chain: MGNITADNSSMSCTIDHTIHQTLAPVVYVTVLVVGFPANCLSLYFGYLQIKARNELGVYLCNLTVADLFYICSLPFWLQYVLQHDNWSHGDLSCQVCGILLYENIYISVGFLCCISVDRYLAVAHPFRFHQFRTLKAAVGVSVVIWAKELLTSIYFLMHEEVIEDENQHRVCFEHYPIQAWQRAINYYRFLVGFLFPICLLLASYQGILRAVRRSHGTQKSRKDQIQRLVLSTVVIFLACFLPYHVLLLVRSVWEASCDFAKGVFNAYHFSLLLTSFNCVADPVLYCFVSETTHRDLARLRGACLAFLTCSRTGRAREAYPLGAPEASGKSGAQGEEPELLTKLHPAFQTPNSPGSGGFPTGRLA

Assays:
[1] = variants of: B1; assay: cAMP reporter score (Enrich2 score, wild type = 0); higher = more signal; HEK293T, FACS bins
[2] = variants of: B1; assay: surface expression score (Enrich2 score, wild type = 0); higher = more signal; HEK293T, FACS bins

| Variant | cAMP reporter score ([1]; pH 5.5) | cAMP reporter score ([1]; pH 6) | cAMP reporter score ([1]; pH 6, modulator: ogerin) | cAMP reporter score ([1]; pH 6.5, modulator: ogerin) | surface expression score [2] |
| --- | --- | --- | --- | --- | --- |
| D165H | -0.196 | 2.14 | -0.622 | – | – |
| D165I | -0.073 | -0.181 | -0.438 | -0.856 | 1.58 |
| D165K | -0.726 | -0.593 | -1.69 | -1.24 | 1.09 |
| D165L | -0.806 | -0.661 | -0.226 | -0.868 | 0.094 |
| D165M | 0.672 | -1.1 | 0.017 | -1.05 | 1.14 |
| D165N | -0.76 | 0.438 | -0.546 | -1.41 | 1.22 |
| D165P | -1.56 | – | – | -1 | -1.36 |
| D165Q | -0.493 | -0.177 | -0.493 | -0.696 | 1.59 |
| D165R | -0.688 | 0.491 | – | -0.728 | 0.33 |
| D165S | -1.25 | -0.465 | -0.551 | -0.987 | 1.3 |
| D165T | -1.26 | -1.53 | -1.09 | -1.49 | -0.122 |
| D165V | -0.274 | -0.284 | -0.693 | -1.08 | 0.806 |
| D165W | 0.176 | -1.8 | -0.794 | 0.083 | 0.125 |
| D165Y | -0.504 | -0.553 | -0.77 | -0.974 | 0.014 |
| D165_E166insG | -0.422 | -0.244 | -0.784 | -1.02 | 1.02 |
| D165_N167del | -1.52 | -0.972 | -1.98 | -1.11 | 1.4 |
| E166A | -0.591 | 0.574 | 0.049 | 1.83 | -0.813 |
| E166C | 0.148 | -0.212 | 0.296 | -0.523 | 0.162 |
| E166D | -0.312 | 0.216 | 0.217 | 0.227 | -0.464 |
| E166F | 0.551 | – | -0.236 | -1.36 | 0.515 |
| E166G | 1.36 | 1.59 | 0.791 | 0.82 | – |

| Variant | cAMP reporter score ([1]; pH 5.5) | cAMP reporter score ([1]; pH 6) | cAMP reporter score ([1]; pH 6, modulator: ogerin) | cAMP reporter score ([1]; pH 6.5, modulator: ogerin) | surface expression score [2] |
| --- | --- | --- | --- | --- | --- |
| E166H | -0.233 | 0.308 | -0.246 | -0.083 | -0.184 |
| E166I | -0.45 | -1 | -0.959 | -0.764 | 0.12 |
| E166K | -0.404 | -0.834 | -0.259 | -1.17 | 0.68 |
| E166L | -0.07 | 0.044 | -0.224 | 0.313 | 0.309 |
| E166M | 0.188 | -0.347 | 0.837 | -0.287 | 1.18 |
| E166N | 1.18 | 0.714 | 0.897 | -0.053 | 1.52 |
| E166P | 0.869 | 0.281 | 1.15 | 0.516 | 3.62 |
| E166Q | 1.19 | 0.489 | 1.13 | 0.456 | 1.65 |
| E166R | 3.93 | – | -0.243 | -0.903 | 0.66 |
| E166S | 0.45 | -0.223 | -0.007 | -1.28 | -0.111 |
| E166T | 0.264 | 0.894 | 0.227 | 0.373 | 0.904 |
| E166W | 0.663 | 0.013 | -0.314 | -0.566 | 1.3 |
| E166Y | 0.421 | -0.34 | 0.2 | -0.08 | 0.504 |
| E166_N167insG | -0.582 | -0.554 | -0.935 | -1.18 | 1.25 |
| E166_N167insGSG | -1.16 | 0.074 | -1.06 | -1.67 | 0.226 |
| N167A | 0.122 | -0.569 | -0.485 | -0.695 | 0.581 |
| N167C | 0.428 | – | 0.412 | -0.141 | – |
| N167D | -0.864 | -1.47 | -0.924 | -1.43 | -1.32 |
| N167E | -0.897 | 0.214 | -1.2 | -0.305 | -0.53 |
| N167F | -0.106 | -0.661 | -0.669 | -0.696 | 0.064 |
| N167G | -0.476 | -1.67 | -1.19 | -1.58 | -0.039 |

| Variant | cAMP reporter score ([1]; pH 5.5) | cAMP reporter score ([1]; pH 6) | cAMP reporter score ([1]; pH 6, modulator: ogerin) | cAMP reporter score ([1]; pH 6.5, modulator: ogerin) | surface expression score [2] |
| --- | --- | --- | --- | --- | --- |
| N167H | 0.894 | 3.57 | 0.778 | 2.93 | 0.08 |
| N167I | 0.313 | 0.047 | -0.853 | -0.77 | 1.94 |
| N167K | 0.405 | -0.796 | 0.659 | -0.304 | 0.268 |
| N167L | -0.124 | -0.761 | 0.153 | -0.31 | 0.302 |
| N167M | 0.857 | 0.143 | 0.415 | 0.479 | 0.467 |
| N167P | 0.083 | -1.21 | – | – | 1.1 |
| N167Q | 0.169 | 1.12 | 0.642 | -0.59 | 1.22 |
| N167R | -0.654 | -0.274 | -0.767 | -1.47 | -0.327 |
| N167S | 0.958 | – | 0.131 | -1.06 | 0.946 |
| N167T | 0.328 | -0.249 | -0.194 | -0.743 | 0.644 |
| N167Y | 0.252 | -1.65 | 0.966 | -0.835 | 0.312 |
| N167_H169del | -0.751 | 0.362 | -1.5 | -1.25 | 0.88 |
| N167_Q168del | -0.618 | -1.52 | -1.55 | -1.08 | 1.05 |
| N167_Q168insGSG | -0.855 | -0.933 | -0.866 | -1.16 | 1.74 |
| N167del | -0.921 | -0.97 | -0.569 | -0.987 | 0.209 |
| Q168_H169del | -1.5 | -1.07 | -1.05 | -1.3 | 0.888 |
| Q168_H169insG | -1.04 | -1.12 | – | -1.64 | 0.32 |
| Q168_R170del | -0.984 | -0.931 | -1.59 | -1.48 | -0.634 |
| Q168del | -0.405 | -0.831 | -0.57 | -1.49 | 0.573 |
| H169_R170insGSG | -0.933 | -1.04 | -1.51 | -1.54 | 0.786 |
